In all, about 33,000 sequences were measured (“E-score (-0.5 to 0.5)”: median about -0.016, highest 2% from about 0.32 on). Some of the results follow.
molecular target: T1, Stp1 (UniProt B3LFK1); test: PBM E-score (8-mer binding enrichment) (E-score (-0.5 to 0.5)); higher = stronger / more preferred TF binding; most listed sequences are background and not binding sites; conditions: protein concentration: 200 nM; construct: GST-full length
T1 sequence: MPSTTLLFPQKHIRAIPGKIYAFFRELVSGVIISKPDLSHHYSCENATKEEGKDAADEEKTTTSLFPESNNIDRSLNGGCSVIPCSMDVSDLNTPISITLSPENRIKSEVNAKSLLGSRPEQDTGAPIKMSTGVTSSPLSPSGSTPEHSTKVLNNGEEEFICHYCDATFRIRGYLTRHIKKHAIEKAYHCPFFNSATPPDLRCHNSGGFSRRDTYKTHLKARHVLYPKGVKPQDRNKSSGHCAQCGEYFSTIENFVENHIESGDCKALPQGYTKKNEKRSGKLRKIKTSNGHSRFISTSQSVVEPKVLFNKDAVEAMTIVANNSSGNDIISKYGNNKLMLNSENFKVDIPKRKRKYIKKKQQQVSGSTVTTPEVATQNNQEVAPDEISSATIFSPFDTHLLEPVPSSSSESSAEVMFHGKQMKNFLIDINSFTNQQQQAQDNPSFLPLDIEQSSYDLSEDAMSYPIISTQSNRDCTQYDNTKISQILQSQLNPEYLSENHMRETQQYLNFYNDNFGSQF
Procedure, shortened: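 Bound GST-tagged yeast transcription factors, applied at about 100-200 nM to double-stranded universal all-10-mer Agilent arrays, were detected with fluorescent anti-GST. Scans were normalised with masliner. A modified Wilcoxon-Mann-Whitney statistic, the E-score, was assigned to each ungapped eight-base word pooled with its reverse complement by the Universal PBM Analysis Suite.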

Sequence	PBM E-score
AGTGCACT	0.0116
CCGGCTAG	-0.317
GGCCACCC	-0.156
CAGGTTGC	-0.073
GTGTATTA	0.202
GGGAGAAA	-0.249
CCGTGTGC	0.312
ATCTGGAG	-0.0951
TAGGTTGA	-0.126
CCTTCGGC	0.0287
GCAAGACC	-0.148
CACATTGG	-0.01
CGGCTGAA	0.0878
ATCAATCA	0.112
AGCGGCCG	0.285
CGGCTTCC	0.211
AACCCTCA	-0.269
GCGCTAGC	-0.155
CGCAGCCC	0.0195
GGACAGCC	0.0472
GGCCGACA	-0.134
AGTTACAA	0.143
ATAGTAAT	0.196
AGACCAGG	-0.205
TCCTTACA	0.0795

Sequence	PBM E-score
CGTCCTAC	-0.06
GCCACGCA	0.039
AAGTGTGA	0.0119
CCGTACAC	0.168
CAAGGGGG	-0.123
ATCTGGAA	0.131
GGCATTCA	0.267
GCAGTGAC	0.0167
GTGCTAGA	-0.198
GGAAAAAC	0.132
TCTATGCA	-0.0103
ACACTAAG	-0.0632
CACGCGTA	0.138
AATGCTGC	-0.0328
CTGTACCA	-0.242
ATGACGTG	0.0346
ACGAAGCC	0.152
GACCACGA	-0.124
CCCATACC	-0.0293
GAACATCC	0.149
AGCGCAAA	-0.0739
GACGGCGC	0.451
AACTAGAT	0.128
CGCTGCGC	-0.0335
AAGTCGAA	-0.227

Sequence	PBM E-score
ATCAATAA	0.169
CGTCAAAC	0.048
AACCGCTA	-0.174
AACCAATT	0.0149
AAGCTAGT	-0.223
GCTGTCCA	0.0285
CTTTGAAA	0.129
TCAGTCCA	-0.327
CGGCAGTC	0.297
CGGCGGCA	0.418
TATAGCCA	0.108
CCAGTTCC	-0.17
AAACCTTT	0.0309
AAAGATCT	-0.138
TACTTATA	0.11
TAATTTGA	-0.0521
CATGTCGA	0.0774
CGCATCAC	0.0369
ATACGTTG	-0.144
TCCGGCCA	-0.135
ATCTCGCC	0.122
AGTCTGTC	-0.121
ACTAGTGG	-0.268
TCGCCGCA	0.448
CGACGCAA	-0.139

Sequence	PBM E-score
ATAGCAAC	0.0551
AAGAGGGA	-0.254
AGGTGTGA	-0.246
AGAGACGG	0.0667
CCTCGTAA	0.108
AGCGATAG	-0.247
CCATGTTA	-0.0633
CGCAGGCG	0.202
ACGAGACC	-0.227
CCAGTTTA	-0.13
AACTTCTA	0.0296
ACAGAGAG	-0.265
TAATACCA	0.0826
AGCGTCGG	-0.0333
GCGGTCAC	-0.136
AGGTCACA	-0.173
AATGACAA	0.0544
CAGGGCGG	-0.116
AACAACGA	-0.0516
AGGACCTA	-0.0221
TAGGCGAA	0.0312
CGAGGTGA	0.0486
CCATGGGG	0.0247
CACTCCCC	-0.116
GGAATCTA	-0.0385

Sequence	PBM E-score
AAATAGTC	-0.157
GAGAAGGC	0.147
AGCCAATA	-0.0625
CACTCTGG	-0.0124
CGTACTTA	0.0887
CAACCGCA	-0.0953
ATGATCTC	-0.0101
CACCACCC	-0.0675
AAGCTCGC	-0.0559
CGTGAGTA	0.131
AACTTGGG	-0.0701
GACCGCCA	-0.0648
CAACTAGG	-0.0204
ATACATCC	0.00593
CAATTTCC	0.0523
GATGCAGC	0.0208
AGGCCGAT	0.0722
AATCCATT	0.101
AACTTCCA	0.00271
AGCGCTGG	-0.0981
TATGTCCA	-0.152
GCAGCAAC	0.0851
GGTGCAGA	-0.169
CGGGAGCA	-0.132
CACTTTGC	0.0646

Sequence	PBM E-score
ATGAACCC	-0.1
CACCAAAG	0.204
CTACCTGA	-0.181
AGACCCAT	-0.305
ACGGAGAA	0.0734
CCGTCTTC	0.0653
AATTGCCT	0.0817
ATATTGAG	0.168
AAGCTAAC	0.0708
CTCCCTGA	-0.353
GTACCAGA	-0.0954
CAAATATC	0.183
CGACTGAC	-0.186
GATAGCTA	-0.215
CCCGTACA	-0.0395
ACGCTTCT	-0.0533
CAATCTTC	0.184
GAGCTGGA	-0.135
GCCAACAC	0.0248
GTGCAGTA	-0.142
ATACGCAG	-0.137
CACGCCCC	-0.11
ATCACTCC	-0.218
ATTCCCCC	-0.382
ATCTCGTG	-0.0713

Sequence	PBM E-score
TGGTTTAA	0.142
ACTCAAGA	-0.0476
CTGCACAC	-0.14
ATATTTTC	0.224
ACGCTGTC	-0.238
AAGGCCTC	-0.092
CTACGAGC	-0.0657
CCTAGTCG	0.0105
CTGGGCCC	-0.317
AGGTTGTC	-0.179
GTTTGCAA	0.15
CGACGCTC	-0.0466
ATCTCTGC	0.151
AGTAAATA	0.182
AGATAGCG	-0.298
AACGACCG	-0.273
AACAATGT	0.00785
ATGGCTTG	-0.0553
ATTTACTG	0.105
TAACGCTA	-0.0977
AACCTGTG	-0.298
AATTGGGA	-0.0189
AATGCCCC	0.0145
ACACTAGT	-0.0671
CGATTCGA	0.132

Sequence	PBM E-score
CCGCGCAA	0.184
TCATGCGA	-0.00545
CGAGGCAG	0.12
ATTTCAAC	0.0251
ATTTCGCG	0.177
GGAAACTA	-0.133
AACTCTGC	-0.178
AAGTTGGG	-0.188
CAGGGAGA	-0.163
ACGACGGA	0.123
TACCTCTA	-0.0991
CTCCGAGA	-0.102
CATTGCTC	0.0826
GAAAATAA	0.161
GAGACCCA	-0.232
ACCAGGTG	-0.227
AACTAAGC	0.0727
GTTCATTA	0.143
GTTTAGAA	0.00314
GGCCCGCC	-0.256
CAGTCTTA	0.0126
CTGAGATC	-0.163
AGAAGGAC	-0.124
ATCTGAGC	0.112
GAAAACTC	-0.0692

Sequence	PBM E-score
ATTCGTTC	0.211
AGTTGAGC	-0.204
AGAAGGTA	0.00924
AAGTCGAG	-0.0912
CTGGCGAA	-0.0308
CCACAGGG	-0.133
CGATGTCC	-0.0557
AAAATGCT	0.164
ATCAGTGA	-0.0262
GGAGTTAA	0.0322
CCTATGAC	-0.14
CGTGGTCC	-0.166
CTGACACA	0.026
CACTGTAA	0.0786
ATGTTCAG	-0.203
ACAAGAGT	-0.257
ATAAGAAG	0.168
ATCCACGA	0.0578
CAAGCAGC	-0.13
AGGTTCTA	0.0188
CATTACTA	0.113
GAGGGGGC	-0.277
ATACGCCC	-0.157
GCACGGAC	0.28
ACGTATTG	0.118

Sequence	PBM E-score
TGCTTACA	0.0332
ACGGTCTA	-0.0402
GCTCCGGA	-0.0424
CGCGTCTA	0.0741
AGCAACAG	-0.00103
GATCAGCA	-0.044
TAAATCAA	0.0833
AGGATCGG	-0.0505
AGACCCGC	0.176
ACAGAGGA	-0.127
ATGAGACG	0.0953
TGAGCCCA	-0.108
ACGGATCG	0.0969
AGACCCCA	-0.227
ACCGGAGG	-0.183
CTTGGCGC	0.164
CGATAGAA	-0.0621
CATATTGG	0.00019
AATAAAGC	0.0936
GAAATCAA	0.00677
CAGTTCGC	0.14
AACCAGGG	-0.0815
TATATCCA	0.124
CACAGTCG	-0.108
ATGCAACA	-0.0536

Sequence	PBM E-score
GCTCCGTA	0.15
ATATATAC	0.307
AGCTCCCG	-0.375
CATTCAAA	0.161
GTAGGAAA	0.0684
AAAGCTGG	-0.106
GTGTCAAC	-0.0422
AGAATTTG	0.0544
CAACCCCG	-0.348
CGAACTCC	0.0684
GCCTCAGA	0.117
GCCTATAA	-0.16
GCGGACAC	0.235
AACCCAGC	-0.258
TACCGATA	-0.0157
CAATTTTA	0.0509
AGGGTTGG	-0.0988
AATTGTCT	-0.0167
CCAATCCA	-0.109
ACTCCAGC	-0.165
CCCGTCCG	-0.342
AAGAATGA	-0.0701
AAGATGCT	-0.0653
GCGACAGC	-0.0576
TCTTCCCA	-0.291

Sequence	PBM E-score
CGGCCCAG	0.138
CCTCGACG	-0.0771
ACCACTAG	-0.0753
ACCGTCAT	0.0594
CAGGGGTA	-0.278
CGCTAGCG	-0.402
AACCTTGT	-0.147
CAAGCACG	0.0616
AACCCCAT	-0.153
AACCCCAC	-0.308
GCGGCGTA	0.433
GACTCCCC	-0.267
AGAGGGGG	-0.395
ACGCGAAG	-0.0258
AAACACGG	0.172
ACATTGTG	-0.0781
ACATGGCA	0.239
CAACCCGA	-0.142
ACGTGGCC	-0.108
CGTTTCGA	0.172
AAACTACC	-0.0531
AGGAGTGA	-0.177
ATTAATTA	0.103
AATACTGC	-0.0476
CAGCCGGA	0.0489

Sequence	PBM E-score
AGCTCGAA	-0.0387
CAATGGCG	0.0793
TCGAGGCA	0.195
GTGCCGCA	0.483
TCATTCCA	-0.166
AAGTATAA	0.0611
TCGAATCA	0.0606
ACTCCTTA	-0.164
CATTCCTA	-0.0291
GCCCACAA	-0.124
ACGGCACC	0.484
GATAAATC	0.13
ACGGGACT	0.0158
CAGTTACC	-0.156
CGAGAGCC	-0.195
ACCTAAGT	-0.0108
AACTAACC	0.117
ATTGTCAA	0.0982
GAAATGGC	0.104
AAAAGCGC	0.056
CGTAGGGC	0.151
AATTGACA	0.0766
AGCCTAGA	0.00734
CATAGAAG	0.074
CAGCGGTA	0.113

Sequence	PBM E-score
ACGCCGCA	0.476
TCCCTCCA	-0.262
AATTCCTG	-0.0858
ATGTATTG	0.126
ACAAGAGC	0.0548
GTGCGTAA	0.127
CAGACAGC	-0.0487
GTCTCATA	-0.085
AATGCGCA	-0.0477
AGTTACGG	0.0219
CTTCGCAC	0.168
TGGAACAA	0.0888
CATTTTTC	0.0822
CAGGTATC	-0.133
TCACCACA	0.0532
ATTACAAA	0.161
AACAATAC	0.137
CCGCCCGA	-0.123
ATACGAAA	0.139

From the supplement of paper PMC3334620
